# Whole data set: some 16,000 sequences, median “Z-score” near -0.37, cut for the highest 2% near 3.2. Some of the results follow.
# System: RBM10 RRM1-ZnF (GST-tagged construct)
# Test: RNAcompete 7-mer binding Z-score; higher = stronger binding preference
# Procedure: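 RNAcompete: 20 pmol GST-tagged RBM10 RNA-binding constructs were incubated with a designed RNA pool of about 241,000 sequences up to 41 nt (1.5 nmol) on glutathione beads for 30 min at 4 °C and washed. Bound RNAs were identified by microarray hybridisation. Each RNA 7-mer is scored by a one-sided Z-score of its enrichment, computed over probes that contain the 7-mer within longer pool sequences.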
row,Sequence,RNAcompete 7-mer binding Z-score
1,UUUCGAA,-0.678
2,ACCACUG,-0.243
3,UUCCCUU,-0.802
4,GCUGGUU,0.618
5,ACCGUGU,-0.47
6,UCUCCUC,-0.626
7,UGCUGUA,-0.412
8,CACGCAG,-0.155
9,GCUCUGU,-0.711
10,CCGGACC,-0.535
11,CUUCUCU,-0.824
12,GAUACAG,0.862
13,UCGAAAG,-0.0772
14,AGGCAGA,0.79
15,ACCUUGG,-0.331
16,UACACAA,-0.548
17,AUAGGUU,1.53
18,GCUGUUU,-0.558
19,UGGUGGG,4.74
20,AGUAAGA,0.267
21,CAAUGGA,1.1
22,AGUUUUU,-0.438
23,GGUGGGA,4.26
24,CAAGUUG,-0.181

row,Sequence,RNAcompete 7-mer binding Z-score
1,GGACGGC,1.19
2,AAGAGUA,0.891
3,CCUGGGU,0.914
4,GGUACAG,1.72
5,GAGCACG,0.491
6,GAUAGGG,4.05
7,GCCGAAC,-0.516
8,UAUUUUU,-0.74
9,CCUAAGG,-0.344
10,UAAGGGC,1.49
11,UACUUGU,-0.535
12,UUCGCGC,-0.714
13,CUGCAUC,-0.811
14,CUUGGUC,-0.746
15,AGCCAAA,-0.467
16,CAAACAU,-0.578
17,CUGAUAC,-0.571
18,AUUCGCC,-0.746
19,CGUAGAC,-0.353
20,CGUGAAA,-0.236
21,AUCCCCG,-0.591
22,CAUAUUC,-0.802
23,GACAGCU,-0.642
24,UUUGGGA,1.62

row,Sequence,RNAcompete 7-mer binding Z-score
1,CCCAAGC,-0.568
2,AUACAUA,-0.269
3,CUAGGUU,0.082
4,AUUGUUG,-0.0544
5,GAGUACG,0.469
6,CUUAGUG,-0.282
7,ACGUGGG,2.43
8,GGCGCUU,-0.184
9,UCCCACA,-0.574
10,UUCAGCU,-0.639
11,UACGAGC,-0.383
12,GUCGCGA,-0.178
13,CAUAGGG,1.51
14,UGCGCCG,-0.256
15,AUAAGCG,0.144
16,AUGCCUC,-0.753
17,UGCCGUA,-0.665
18,AAAAACU,-0.558
19,CGAGCGA,0.667
20,ACUUAGC,-0.795
21,UUACUGA,-0.578
22,AGUUCUA,-0.701
23,UGCACAA,-0.526
24,UCUGGCC,-0.509

row,Sequence,RNAcompete 7-mer binding Z-score
1,ACGCGUC,-0.37
2,CUGGAGU,0.569
3,AAAUGCC,-0.48
4,UAACAAG,-0.178
5,UGUGAUA,0.069
6,CCGAAGG,0.179
7,UCAUGAU,-0.383
8,GUGUGGG,3.93
9,AACCGAC,-0.724
10,GACAAUG,0.709
11,GCUGUUC,-0.584
12,CUCAGCC,-0.792
13,GCACAUA,-0.464
14,GCGCACG,-0.116
15,CAUGAAU,-0.249
16,UCGCAGA,-0.412
17,UCCACGA,-0.662
18,UUCACGA,-0.704
19,UCAGCCG,-0.802
20,CACUGUA,-0.327
21,CGAGGCG,0.949
22,GCUCGAA,-0.425
23,UAAUACG,-0.288
24,CCAUAUG,-0.607

row,Sequence,RNAcompete 7-mer binding Z-score
1,UGUUAUC,-0.457
2,GGGGCGU,2.64
3,AGCCGGC,-0.571
4,AACGAUG,0.179
5,CGUCUUU,-0.805
6,UUUCUGU,-0.665
7,UUUUUCA,-0.74
8,GUUACAU,-0.357
9,GACUCUG,-0.672
10,GGAAGUG,2.86
11,AAUAUCC,-0.707
12,CUUGUCC,-0.769
13,ACACUCC,-0.769
14,UCCCGCC,-0.467
15,UUCCCGU,-0.753
16,UUAAGGA,1.1
17,GUGGAUC,1.04
18,CACUUUG,-0.873
19,CAAGCAU,-0.487
20,GGGGAAU,3.41
21,CUCUAUC,-0.746

# From the supplement of paper PMC5499739
